# Source: the supplement of paper PMC8728848
# The list shows a part of the results.
# Columns and labels:
# Experiment in all cases: glycan array binding signal (z-score within array); higher = stronger binding
# Conditions in all cases: glycan notation: IUPAC condensed, linker removed
# [1] = molecular target: Fuc(a1-2)Gal
# Summary of the method: (§1)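 Negative Z-scores can be read as non-binding. The Z-score is calculated within each array and then averaged across arrays of one protein sequence at different concentrations or buffers and across linkers. Arrays, 3228 in all, were curated from the Consortium for Functional Glycomics database and kept only where the protein sequence was available.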
# [2] = molecular target: Fuc(a1-2)Gal(b1-3)GalNAc
# Summary of the method: as §1
# [3] = molecular target: Fuc(a1-2)Gal(b1-3)GalNAc(a1-3)[Fuc(a1-2)]Gal(b1-4)Glc
# Summary of the method: as §1
# [4] = molecular target: Fuc(a1-2)Gal(b1-3)GalNAc(a1-3)[Fuc(a1-2)]Gal(b1-4)GlcNAc
# Summary of the method: as §1
# [5] = molecular target: Fuc(a1-2)Gal(b1-3)GalNAc(b1-3)Gal
# Summary of the method: as §1
# [6] = molecular target: Fuc(a1-2)Gal(b1-3)GalNAc(b1-3)Gal(a1-4)Gal(b1-4)Glc
# Summary of the method: as §1
# [7] = molecular target: Fuc(a1-2)Gal(b1-3)GalNAc(b1-4)[Neu5Ac(a2-3)]Gal(b1-4)Glc
# Summary of the method: as §1
# [8] = molecular target: Fuc(a1-2)Gal(b1-3)GlcNAc
# Summary of the method: as §1
# [9] = molecular target: Fuc(a1-2)Gal(b1-3)GlcNAc(b1-2)Man(a1-3)[Fuc(a1-2)Gal(b1-3)GlcNAc(b1-2)Man(a1-6)]Man(b1-4)GlcNAc(b1-4)GlcNAc
# Summary of the method: as §1
# [10] = molecular target: Fuc(a1-2)Gal(b1-3)GlcNAc(b1-2)Man(a1-3)[Fuc(a1-2)Gal(b1-3)GlcNAc(b1-2)Man(a1-6)]Man(b1-4)GlcNAc(b1-4)[Fuc(a1-6)]GlcNAc
# Summary of the method: as §1
# [11] = molecular target: Fuc(a1-2)Gal(b1-3)GlcNAc(b1-3)Gal(b1-4)Glc
# Summary of the method: as §1
# [12] = molecular target: Fuc(a1-2)Gal(b1-3)GlcNAc(b1-3)GalNAc
# Summary of the method: as §1
# [13] = molecular target: Fuc(a1-2)Gal(b1-3)GlcNAc(b1-3)[Fuc(a1-2)Gal(b1-3)GlcNAc(b1-6)]GalNAc
# Summary of the method: as §1
# [14] = molecular target: Fuc(a1-2)Gal(b1-3)GlcNAc(b1-3)[Gal(b1-4)GlcNAc(b1-6)]Gal(b1-4)Glc
# Summary of the method: as §1
# [15] = molecular target: Fuc(a1-2)Gal(b1-3)GlcNAc(b1-3)[Neu5Ac(a2-6)Gal(b1-4)GlcNAc(b1-6)]Gal(b1-4)Glc
# Summary of the method: as §1
# [16] = molecular target: Fuc(a1-2)Gal(b1-3)GlcNAc6S
# Summary of the method: as §1
# [17] = molecular target: Fuc(a1-2)Gal(b1-3)[Fuc(a1-4)]GlcNAc
# Summary of the method: as §1
# [18] = molecular target: Fuc(a1-2)Gal(b1-3)[Fuc(a1-4)]GlcNAc(b1-2)Man(a1-3)[Fuc(a1-2)Gal(b1-3)[Fuc(a1-4)]GlcNAc(b1-2)Man(a1-3)]Man(b1-4)GlcNAc(b1-4)GlcNAc
# Summary of the method: as §1
# [19] = molecular target: Fuc(a1-2)Gal(b1-3)[Fuc(a1-4)]GlcNAc(b1-2)Man(a1-3)[Fuc(a1-2)Gal(b1-3)[Fuc(a1-4)]GlcNAc(b1-2)Man(a1-6)]Man(b1-4)GlcNAc(b1-4)[Fuc(a1-6)]GlcNAc(b1-4)[Fuc(a1-6)]GlcNAc
# Summary of the method: as §1
# [20] = molecular target: Fuc(a1-2)Gal(b1-3)[Fuc(a1-4)]GlcNAc(b1-3)[Fuc(a1-3)[Gal(b1-4)]GlcNAc(b1-6)]Gal(b1-4)Glc
# Summary of the method: as §1
# [21] = molecular target: Fuc(a1-2)Gal(b1-3)[Fuc(a1-4)]GlcNAc(b1-3)[Gal(b1-4)GlcNAc(b1-6)]Gal(b1-4)Glc
# Summary of the method: as §1
# [22] = molecular target: Fuc(a1-2)Gal(b1-4)Glc
# Summary of the method: as §1
# [23] = molecular target: Fuc(a1-2)Gal(b1-4)Glc6S
# Summary of the method: as §1
# [24] = molecular target: Fuc(a1-2)Gal(b1-4)GlcNAc
# Summary of the method: as §1
# [25] = molecular target: Fuc(a1-2)Gal(b1-4)GlcNAc(b1-2)Man
# Summary of the method: as §1
# [26] = molecular target: Fuc(a1-2)Gal(b1-4)GlcNAc(b1-2)Man(a1-3)[Fuc(a1-2)Gal(b1-4)GlcNAc(b1-2)Man(a1-6)]Man(b1-4)GlcNAc(b1-4)GlcNAc
# Summary of the method: as §1
# [27] = molecular target: Fuc(a1-2)Gal(b1-4)GlcNAc(b1-2)Man(a1-3)[Fuc(a1-2)Gal(b1-4)GlcNAc(b1-2)Man(a1-6)]Man(b1-4)GlcNAc(b1-4)[Fuc(a1-6)]GlcNAc
# Summary of the method: as §1
# [28] = molecular target: Fuc(a1-2)Gal(b1-4)GlcNAc(b1-2)[Fuc(a1-2)Gal(b1-4)GlcNAc(b1-4)]Man(a1-3)[Fuc(a1-2)Gal(b1-4)GlcNAc(b1-2)Man(a1-6)]Man(b1-4)GlcNAc(b1-4)GlcNAc
# Summary of the method: as §1
# [29] = molecular target: Fuc(a1-2)Gal(b1-4)GlcNAc(b1-3)Gal(b1-4)GlcNAc
# Summary of the method: as §1
# [30] = molecular target: Fuc(a1-2)Gal(b1-4)GlcNAc(b1-3)Gal(b1-4)GlcNAc(b1-2)Man(a1-3)[Fuc(a1-2)Gal(b1-4)GlcNAc(b1-3)Gal(b1-4)GlcNAc(b1-2)Man(a1-6)]Man(b1-4)GlcNAc(b1-4)GlcNAc
# Summary of the method: as §1
# [31] = molecular target: Fuc(a1-2)Gal(b1-4)GlcNAc(b1-3)Gal(b1-4)GlcNAc(b1-3)Gal(b1-4)GlcNAc
# Summary of the method: as §1
# [32] = molecular target: Fuc(a1-2)Gal(b1-4)GlcNAc(b1-3)GalNAc
# Summary of the method: as §1
# [33] = molecular target: Fuc(a1-2)Gal(b1-4)GlcNAc(b1-3)[Fuc(a1-2)Gal(b1-4)GlcNAc(b1-6)]GalNAc
# Summary of the method: as §1
# [34] = molecular target: Fuc(a1-2)Gal(b1-4)GlcNAc(b1-3)[Fuc(a1-3)[Gal(b1-4)]GlcNAc(b1-6)]Gal(b1-4)Glc
# Summary of the method: as §1
# [35] = molecular target: Fuc(a1-2)Gal(b1-4)GlcNAc(b1-6)GalNAc
# Summary of the method: as §1
# [36] = molecular target: Fuc(a1-2)Gal(b1-4)GlcNAc6S
# Summary of the method: as §1
# [37] = molecular target: Fuc(a1-2)Gal(b1-4)[Fuc(a1-3)]GlcNAc
# Summary of the method: as §1
# [38] = molecular target: Fuc(a1-2)Gal(b1-4)[Fuc(a1-3)]GlcNAc(b1-2)Man(a1-3)[Fuc(a1-2)Gal(b1-4)[Fuc(a1-3)]GlcNAc(b1-2)Man(a1-6)]Man(b1-4)GlcNAc(b1-4)[Fuc(a1-6)]GlcNAc
# Summary of the method: as §1
# [39] = molecular target: Fuc(a1-2)Gal(b1-4)[Fuc(a1-3)]GlcNAc(b1-2)[Fuc(a1-2)Gal(b1-4)[Fuc(a1-3)]GlcNAc(b1-4)]Man(a1-3)[Fuc(a1-2)Gal(b1-4)[Fuc(a1-3)]GlcNAc(b1-2)Man(a1-6)]Man(b1-4)GlcNAc(b1-4)GlcNAc
# Summary of the method: as §1
# [40] = molecular target: Fuc(a1-2)Gal(b1-4)[Fuc(a1-3)]GlcNAc(b1-3)Gal(b1-4)[Fuc(a1-3)]GlcNAc
# Summary of the method: as §1
# [41] = molecular target: Fuc(a1-2)Gal(b1-4)[Fuc(a1-3)]GlcNAc(b1-3)Gal(b1-4)[Fuc(a1-3)]GlcNAc(b1-3)Gal(b1-4)[Fuc(a1-3)]GlcNAc
# Summary of the method: as §1
# [42] = molecular target: Fuc(a1-2)Gal(b1-4)[Fuc(a1-3)]GlcNAc(b1-3)GalNAc
# Summary of the method: as §1
# [43] = molecular target: Fuc(a1-2)Gal(b1-4)[Fuc(a1-3)]GlcNAc(b1-3)[Neu5Ac(a2-6)Gal(b1-4)GlcNAc(b1-6)]Gal(b1-4)Glc
# Summary of the method: as §1
# [44] = molecular target: Fuc(a1-2)Gal3S(b1-4)GlcNAc
# Summary of the method: as §1
# [45] = molecular target: Fuc(a1-2)Gal6S(b1-3)GlcNAc
# Summary of the method: as §1
binder,measurement,setting,value
PLU (Photorhabdus luminiscence) (protein) HHHHHHENLYFQSSIVFASIDPRSNPLQTSSQNYVDIPGLKLDVSKYSNSPCLTALITLNIPTPYASGNNFPGGNFAIVTDQGEQLAYGGFTYSSKIPENSGRMPFTLVARYSLASNVSTIKAQWSNIRGSTVHIDSYASISAVIQCNQLV,glycan array binding signal (z-score),[1],-0.16
same,glycan array binding signal (z-score),[2],-0.206
same,glycan array binding signal (z-score),[3],0.208
same,glycan array binding signal (z-score),[4],0.604
same,glycan array binding signal (z-score),[5],-0.305
same,glycan array binding signal (z-score),[6],-0.183
same,glycan array binding signal (z-score),[7],-0.274
same,glycan array binding signal (z-score),[8],0.026
same,glycan array binding signal (z-score),[9],0.189
same,glycan array binding signal (z-score),[10],-0.225
same,glycan array binding signal (z-score),[11],-0.211
same,glycan array binding signal (z-score),[12],-0.233
same,glycan array binding signal (z-score),[13],-0.17
same,glycan array binding signal (z-score),[14],-0.284
same,glycan array binding signal (z-score),[15],-0.358
same,glycan array binding signal (z-score),[16],0.008
same,glycan array binding signal (z-score),[17],5.25
same,glycan array binding signal (z-score),[18],-0.247
same,glycan array binding signal (z-score),[19],1.1
same,glycan array binding signal (z-score),[20],0.083
same,glycan array binding signal (z-score),[21],1.53
same,glycan array binding signal (z-score),[22],1.95
same,glycan array binding signal (z-score),[23],-0.189
same,glycan array binding signal (z-score),[24],2.67
same,glycan array binding signal (z-score),[25],-0.261
same,glycan array binding signal (z-score),[26],-0.141
same,glycan array binding signal (z-score),[27],-0.136
same,glycan array binding signal (z-score),[28],-0.106
same,glycan array binding signal (z-score),[29],1.48
same,glycan array binding signal (z-score),[30],2.78
same,glycan array binding signal (z-score),[31],1.92
same,glycan array binding signal (z-score),[32],-0.262
same,glycan array binding signal (z-score),[33],-0.21
same,glycan array binding signal (z-score),[34],-0.179
same,glycan array binding signal (z-score),[35],-0.243
same,glycan array binding signal (z-score),[36],-0.234
same,glycan array binding signal (z-score),[37],3.55
same,glycan array binding signal (z-score),[38],0.621
same,glycan array binding signal (z-score),[39],-0.224
same,glycan array binding signal (z-score),[40],3.58
same,glycan array binding signal (z-score),[41],5.21
same,glycan array binding signal (z-score),[42],-0.253
same,glycan array binding signal (z-score),[43],0.118
same,glycan array binding signal (z-score),[44],1.37
same,glycan array binding signal (z-score),[45],-0.284
